Reference: the supplement of paper PMC10369915
This is one part of the list. Rule as the data show it: active = 3.2 or more and inactive = the rest. Most of these values are background signal.

B1: MMP8_Y36_T32I (peptide)
chain: KIVQDYLEKFY
B2: MMP21_Y347 (peptide)
chain: KERNQYGEVMV
B3: MMP8_Y36_YF (peptide)
chain: KTVQDYLEKFF
B4: MME_Y497 (peptide)
chain: KLNNEYLELNY
B5: MME_Y502 (peptide)
chain: YLELNYKEDEY
B6: MLH1_Y379 (peptide)
chain: SSDKVYAHQMV
B7: MKI67_Y1737 (peptide)
chain: TTKVSYRASQP
B8: MME_Y497_Y497H_YF (peptide)
chain: KLNNEHLELNF
B9: MISP_Y95_A99T (peptide)
chain: EGWQVYRLGTR
B10: MMP27_Y307_W304L (peptide)
chain: HLLRIYYDITD
B11: MMP3_Y42_K45E (peptide)
chain: YLENYYDLEKD
B12: MITF_Y360_S357P (peptide)
chain: KAPVDYIRKLQ
B13: MMP8_Y36_E38K (peptide)
chain: KTVQDYLKKFY
B14: MME_Y502_Y497H_YF (peptide)
chain: HLELNYKEDEF
B15: MIPEP_Y579_L582R (peptide)
chain: QLQVFYATRDQ
B16: MMP9_Y241 (peptide)
chain: FEGRSYSACTT
B17: MMP23B_Y95 (peptide)
chain: HFNLTYRILSF
B18: MLH1_Y183_V185G (peptide)
chain: EVVGRYSGHNA
B19: MLH1_Y293_S295T (peptide)
chain: THPFLYLTLEI
B20: MME_Y497_YF (peptide)
chain: KLNNEYLELNF
B21: MKI67_Y1737_K1734I (peptide)
chain: TTIVSYRASQP
B22: MMP27_Y307_W304L_YF (peptide)
chain: HLLRIYFDITD
B23: MLH1_Y183_N187Y_YF (peptide)
chain: EVVGRYSVHFA
B24: MMP3_Y41_YF (peptide)
chain: KFLENYFDLKK
B25: MLH1_Y379_Y379C (peptide)
chain: SSDKVCAHQMV
B26: MMP8_Y36 (peptide)
chain: KTVQDYLEKFY
B27: MKI67_Y849_L854V (peptide)
chain: TPRNTYKMTSV
B28: MMP23B_Y95_F91L (peptide)
chain: HLNLTYRILSF
B29: MMP3_Y41 (peptide)
chain: KYLENYYDLKK
B30: MMP11_Y162_D166N (peptide)
chain: IDFARYWHGND
B31: MMP8_Y36_T32I_YF (peptide)
chain: KIVQDYLEKFF
B32: MLH1_Y183_R182G (peptide)
chain: EVVGGYSVHNA
B33: MKI67_Y340 (peptide)
chain: ASFPLYEPAKM
B34: MMP14_Y353 (peptide)
chain: QVMDGYPMPIG
B35: MKI67_Y849 (peptide)
chain: TPRNTYKMTSL
B36: MMP11_Y162 (peptide)
chain: IDFARYWHGDD
B37: MKI67_Y340_P338S (peptide)
chain: ASFSLYEPAKM

Legend:
Assay in all cases: enrichment score (SH2-bound / input frequency) (ratio); bacterial display of known human phosphotyrosine sites (pTyr-Var adds point mutants) read by sequencing; higher = stronger binding; tyrosines were phosphorylated by kinases first
Conditions in all cases: peptide library: pTyr-Var
SHP2 C-SH2 domain E139D = molecular target: SHP2 C-SH2 domain E139D
[1] = molecular target: SHP2 C-SH2 domain wild-type
SHP2 N-SH2 domain L43F = molecular target: SHP2 N-SH2 domain L43F
SHP2 N-SH2 domain T42A = molecular target: SHP2 N-SH2 domain T42A
SHP2 N-SH2 domain T52S = molecular target: SHP2 N-SH2 domain T52S
[2] = molecular target: SHP2 N-SH2 domain wild-type
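Also: displayed peptides selected on beads carrying the immobilized SH2 domain, with library peptides lacking any tyrosine serving as negative controls.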

| Binder | enrichment score (SHP2 C-SH2 domain E139D) | enrichment score [1] | enrichment score (SHP2 N-SH2 domain L43F) | enrichment score (SHP2 N-SH2 domain T42A) | enrichment score (SHP2 N-SH2 domain T52S) | enrichment score [2] |
| --- | --- | --- | --- | --- | --- | --- |
| B1 | inactive: 1.31 | inactive: 1.05 | inactive: 1.2 | inactive: 1.06 | inactive: 1.16 | inactive: 1.3 |
| B2 | inactive: 0.628 | inactive: 0.651 | inactive: 0.648 | inactive: 0.539 | inactive: 0.678 | inactive: 0.608 |
| B3 | inactive: 1.82 | inactive: 1.5 | inactive: 1.71 | inactive: 1.56 | inactive: 1.96 | inactive: 1.45 |
| B4 | inactive: 0.992 | inactive: 0.671 | inactive: 0.863 | inactive: 1.31 | inactive: 0.705 | inactive: 0.819 |
| B5 | inactive: 0.701 | inactive: 1.23 | active: 3.26 | active: 6.33 | active: 3.61 | inactive: 1.15 |
| B6 | inactive: 0.653 | inactive: 0.528 | inactive: 0.557 | inactive: 0.585 | inactive: 0.6 | inactive: 0.576 |
| B7 | inactive: 0.728 | inactive: 0.784 | inactive: 0.692 | inactive: 0.714 | inactive: 0.611 | inactive: 0.692 |
| B8 | inactive: 0.873 | inactive: 0.643 | inactive: 0.709 | inactive: 0.718 | inactive: 0.86 | inactive: 0.803 |
| B9 | inactive: 0.565 | inactive: 0.557 | inactive: 0.477 | inactive: 0.499 | inactive: 0.549 | inactive: 0.545 |
| B10 | inactive: 1.66 | inactive: 2.09 | inactive: 2.02 | inactive: 1.72 | inactive: 1.83 | inactive: 2.56 |
| B11 | inactive: 1.04 | inactive: 0.983 | inactive: 1.29 | inactive: 0.861 | inactive: 0.93 | inactive: 1.26 |
| B12 | inactive: 0.708 | inactive: 0.737 | inactive: 0.749 | inactive: 0.606 | inactive: 0.737 | inactive: 0.759 |
| B13 | inactive: 0.857 | inactive: 0.638 | inactive: 0.601 | inactive: 0.681 | inactive: 0.764 | inactive: 0.797 |
| B14 | inactive: 1.02 | inactive: 0.848 | inactive: 1.03 | inactive: 0.532 | inactive: 0.838 | inactive: 0.578 |
| B15 | inactive: 1.31 | inactive: 1.17 | inactive: 1.15 | inactive: 1.2 | inactive: 1.21 | inactive: 1.21 |
| B16 | inactive: 0.696 | inactive: 0.856 | inactive: 0.854 | inactive: 0.823 | inactive: 0.772 | inactive: 0.856 |
| B17 | inactive: 0.576 | inactive: 0.693 | inactive: 0.644 | inactive: 0.604 | inactive: 0.675 | inactive: 0.695 |
| B18 | inactive: 0.436 | inactive: 0.571 | inactive: 0.474 | inactive: 0.633 | inactive: 0.682 | inactive: 0.81 |
| B19 | inactive: 2.22 | inactive: 2.85 | inactive: 2.03 | inactive: 1.67 | inactive: 1.43 | inactive: 2.79 |

| Binder | enrichment score (SHP2 C-SH2 domain E139D) | enrichment score [1] | enrichment score (SHP2 N-SH2 domain L43F) | enrichment score (SHP2 N-SH2 domain T42A) | enrichment score (SHP2 N-SH2 domain T52S) | enrichment score [2] |
| --- | --- | --- | --- | --- | --- | --- |
| B20 | inactive: 1.11 | inactive: 0.95 | inactive: 2.55 | active: 4.4 | inactive: 3.03 | inactive: 1.09 |
| B21 | inactive: 0.933 | inactive: 0.791 | inactive: 0.808 | inactive: 0.638 | inactive: 0.924 | inactive: 0.745 |
| B22 | inactive: 1.13 | inactive: 1.76 | inactive: 1.35 | inactive: 1.44 | inactive: 1.44 | inactive: 1.9 |
| B23 | inactive: 1.05 | inactive: 1.03 | inactive: 1.13 | inactive: 0.926 | inactive: 0.957 | inactive: 0.943 |
| B24 | inactive: 1.75 | inactive: 1.71 | inactive: 1.83 | inactive: 1.89 | inactive: 1.84 | inactive: 2.17 |
| B25 | inactive: 1.24 | inactive: 1.21 | inactive: 1.05 | inactive: 0.965 | inactive: 1.13 | inactive: 1.12 |
| B26 | inactive: 1.2 | inactive: 1.21 | inactive: 0.987 | inactive: 1.27 | inactive: 1.29 | inactive: 1.11 |
| B27 | inactive: 0.542 | inactive: 0.575 | inactive: 0.628 | inactive: 0.498 | inactive: 0.451 | inactive: 0.63 |
| B28 | inactive: 0.389 | inactive: 0.528 | inactive: 0.674 | inactive: 0.785 | inactive: 0.697 | inactive: 0.692 |
| B29 | inactive: 1.17 | inactive: 1.27 | inactive: 0.786 | inactive: 0.954 | inactive: 0.79 | inactive: 1.3 |
| B30 | inactive: 1 | inactive: 0.867 | inactive: 0.863 | inactive: 0.973 | inactive: 0.93 | inactive: 0.819 |
| B31 | inactive: 2.49 | inactive: 2.1 | inactive: 2.33 | inactive: 2.4 | inactive: 2.25 | inactive: 1.99 |
| B32 | inactive: 0.804 | inactive: 0.544 | inactive: 0.627 | inactive: 0.418 | inactive: 0.622 | inactive: 0.73 |
| B33 | inactive: 0.885 | inactive: 0.591 | inactive: 0.754 | inactive: 0.685 | inactive: 0.818 | inactive: 0.76 |
| B34 | inactive: 0.943 | inactive: 0.887 | inactive: 0.57 | inactive: 0.544 | inactive: 0.783 | inactive: 0.66 |
| B35 | inactive: 0.534 | inactive: 0.706 | inactive: 0.777 | inactive: 0.43 | inactive: 0.818 | inactive: 1.03 |
| B36 | inactive: 1 | inactive: 0.676 | inactive: 0.809 | inactive: 0.907 | inactive: 1 | inactive: 0.771 |
| B37 | inactive: 1.29 | inactive: 1.09 | inactive: 1.18 | inactive: 1.04 | inactive: 1.21 | inactive: 1.68 |
